# Source: PubChem BioAssay (NCATS)
# Values joined by “and” are separate entries in the source; they are usually repeats but may differ in a detail not shown here. Identical values can stand only once. The shares of active, inactive and inconclusive entries below differ from those in the screen. For some of these results: Potencies beside an inconclusive call are fits to weak or partial responses and may not hold up. For some of these results: “Side channel” marks fits to a control or component signal instead of the main read-out. Active and inactive are the calls of the source. Unless noted, the call rests on the fitted dose curve; in most records, active means well fitted curve in the direction sought with a large enough effect; inconclusive means small, poorly fitted or top-dose-only effect, or another doubt; inactive means no such curve, though single readings can be large; an effect the other way counts as inactive or inconclusive.
# Assays:
# [1] = qHTS for Inhibitors of ATXN expression: Validation of Cytotoxic Assay (AID 588349); further: potency means the concentration at half of the fitted maximal effect
# Procedure, shortened: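 Cytotoxicity counter-screen: ATP-based luminescent viability (CellTiter Glo) after 72 hr exposure of HEK293 cells to a compound titration at 37 degrees C.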
# [2] = qHTS for Inhibitors of ATXN expression: Validation (AID 588378); further: nearly all actives have a fitted effect of over 75% in size; further: potency means the concentration at half of the fitted maximal effect; on activity change, negative = inhibition: on the % scale 0 is the no-effect control and ±100 the full control effect
# Procedure, shortened: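 After a 2 h attachment and 24 h compound incubation, HEK293-ATXN2-FFLuc wells are read for fluorescence at 405 nm excitation/525 nm emission as a viability measure, then for Bright-Glo luminescence reflecting ATXN2 expression.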
# [3] = biological target: Ubiquitin carboxyl-terminal hydrolase 1 (Homo sapiens) (UniProt O94782); experiment: Inhibitors of USP1/UAF1: Pilot qHTS (AID 504865); further: potency means the concentration at half of the fitted maximal effect;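 further: rhodamine fluorescence freed from ubiquitin-rhodamine substrate followed over time; nearly all actives have a fitted effect of over 35% in size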; on activity change, negative = inhibition: top concentration of the series differs between compounds; on the % scale 0 is the no-effect control and ±100 the full control effect
# Procedure, shortened: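 Enzyme-free wells gave the negative control, while test wells held 1nM USP1/UAF1 preincubated with compound for 15 min at room temperature. Ub-Rho at 150nM final started the reaction, and fluorescence at 480/540 nm was recorded kinetically.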
# [4] = biological target: DNA dC->dU-editing enzyme APOBEC-3G (Homo sapiens) (UniProt Q9HC16); experiment: qHTS for inhibitors of Vif-A3G interactions: Validation (AID 588379); settings: Vif-A3G protein interaction assay; further: potency means the concentration at half of the fitted maximal effect
# Procedure, shortened: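 Yellow fluorescence (Ex 488, Em 500-530) of Vif-coexpressing HeLa A3G-eYFP cells, scanned by Acumen cytometer, reports blocked A3G degradation. Cells plated at 700/well overnight at 37 deg C before compound addition, then a further overnight compound incubation at 37 deg C.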
# [5] = biological target: Estrogen receptor (Homo sapiens) (UniProt P03372); experiment: qHTS assay for small molecule agonists of estrogen receptor alpha signaling (AID 588514; calls by dose curve; further: nearly all actives have a fitted effect of over 70% in size; further: potency means the concentration at half of the fitted maximal effect;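 on activation: 0% = vehicle only and 100% = reference agonist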); settings: ER-alpha-UAS-bla HEK293, beta-lactamase ratio, 18 h; activation: at 76.8 µM (top of the series), percent of full estradiol response, vehicle zero
# Procedure, shortened: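 EC50 and efficacy came from Hill fits of beta-lactamase reporter signal (CCF4 dye, 2 h at room temperature) scaled between DMSO and 20 nM 17-beta-estradiol. Agonist mode: HEK293 ER-alpha-UAS-bla cells in charcoal/dextran-stripped serum medium, 18 h compound exposure at 37 C.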
# [6] = biological target: Bile acid receptor (Homo sapiens) (UniProt Q96RI1); experiment: qHTS assay for small molecule antagonists of farnesoid X receptor signaling (AID 588526; calls by dose curve; further: on the % scale 0 is the no-effect control and ±100 the full control effect); settings: HEK293T FXR-UAS-bla, beta-lactamase ratio, antagonist mode; at 76.7 µM (top of the series)
# Procedure, shortened: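 Antagonist mode: titrated compounds tested against chenodeoxycholic acid stimulation (normalized to 50 uM CDCA and DMSO) in GeneBLAzer HEK293T cells for 16 h. Beta-lactamase read by CCF4 fluorescence; IC50 from Hill fits.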
# [7] = biological target: Glucocorticoid receptor (Homo sapiens) (UniProt P04150); experiment: qHTS assay for small molecule antagonists of glucocorticoid receptor signaling (AID 588533; active means well fitted inhibition curve with a large enough effect in the signal ratio, with a control signal flat, not every such curve was filed as active; inconclusive means small, poorly fitted or top-dose-only effect, or effect the other way, or a change in a side signal; the % refers to the signal ratio;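 further: cells stimulated with 2 nM dexamethasone as agonist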; further: potency means the concentration at half of the fitted maximal effect); settings: HeLa MMTV-bla, GRE beta-lactamase ratio, antagonist mode, 18 h; activity change, negative = inhibition: at 76.8 µM (top of the series)
# [8] = biological target: Bile acid receptor (Homo sapiens) (UniProt Q96RI1); experiment: qHTS assay for small molecule agonists of farnesoid X receptor signaling (AID 588527; calls by dose curve;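 further: 0% = vehicle basal and 100% = reference agonist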); settings: HEK293T FXR-UAS-bla, beta-lactamase ratio, 16 h; activation: active compounds read high
# Procedure, shortened: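 FXR-UAS-bla HEK293T, 10% dialyzed FBS; cpds up to 92 uM titration, 16 h 37 C; CCF4 dye 2 h RT; fluorescence. Normalized to chenodeoxycholic acid 100 uM (100%) and DMSO (0%); Hill fit gives EC50, efficacy.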
# [9] = biological target: Androgen receptor (Homo sapiens) (UniProt P10275); experiment: qHTS assay for small molecule agonists of androgen receptor signaling (AID 588515; active means well fitted curve in the direction sought with a large enough effect in the signal ratio, with a control signal flat; inconclusive means small, poorly fitted or top-dose-only effect, or effect the other way, or a change in a side signal; inactive means no such curve, though single readings can be large or run the other way; the % refers to the signal ratio; further: on the % scale 0 is the no-effect control and ±100 the full control effect); settings: AR-UAS-bla HEK293, beta-lactamase ratio, agonist 16 h; active compounds read high
# Procedure, shortened: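 Stimulation of an AR-responsive β-lactamase reporter in GripTite HEK293 cells was measured after 16 h compound exposure at 37 °C, via CCF4 fluorescence after 2 h RT. EC50 from Hill fits, normalized to R1881 at 30 nM.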
# [10] = biological target: Androgen receptor (Homo sapiens) (UniProt P10275); experiment: qHTS assay for small molecule antagonists of androgen receptor signaling (AID 588516; active means well fitted curve in the direction sought with a large enough effect in the signal ratio, with a control signal flat, not every such curve was filed as active; inconclusive means small, poorly fitted or top-dose-only effect, or effect the other way, or a change in a side signal; inactive means no such curve, though single readings can be large or run the other way; the % refers to the signal ratio; further: potency means the concentration at half of the fitted maximal effect); settings: AR-UAS-bla HEK293, beta-lactamase ratio, antagonist mode, 16 h; activity change, negative = inhibition: at 76.8 µM (top of the series)
# Procedure, shortened: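 Antagonist mode: inhibition of R1881-stimulated (10 nM final) bla reporter in GeneBLAzer AR HEK 293 cells, 16 h at 37C, compounds titrated. IC50 and efficacy from Hill-equation fits of 405/460–530 nm FRET ratios.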
# [11] = biological target: Glucocorticoid receptor (Homo sapiens) (UniProt P04150); experiment: qHTS assay for small molecule agonists of glucocorticoid receptor signaling (AID 588532; active means well fitted curve in the direction sought with a large enough effect in the signal ratio, with a control signal flat; inconclusive means small, poorly fitted or top-dose-only effect, or a change in a side signal; inactive means no such curve, though single readings can be large or run the other way; the % refers to the signal ratio; further: potency means the concentration at half of the fitted maximal effect); settings: HeLa MMTV-bla, beta-lactamase ratio, agonist, 18 h; activation: active compounds read high, percent of dexamethasone control, DMSO zero
# Procedure, shortened: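 Cells were plated and rested 3-5 h at 37 C, compounds were added in titration and incubated 18 h, then CCF4 substrate was loaded for 2 h at RT before reading blue/green fluorescence. EC50 came from Hill-equation fitting.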
# [12] = biological target: Peroxisome proliferator-activated receptor delta (Homo sapiens) (UniProt Q03181); experiment: qHTS assay for small molecule agonists of peroxisome proliferator-activated receptor delta signaling (AID 588534; calls by dose curve; further: potency means the concentration at half of the fitted maximal effect;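 on activation: 0% = DMSO basal wells and 100% = positive control agonist at 10 µM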)
# Procedure, shortened: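 Agonist-mode beta-lactamase reporter readout (CCF4 dye, 2 h at RT) after 18 h at 37 °C exposure to a titration; Hill-equation fitting gave EC50 and maximal response.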
# [13] = biological target: Estrogen receptor (Homo sapiens) (UniProt P03372); experiment: qHTS assay for small molecule antagonists of estrogen receptor alpha signaling (AID 588513; active means well fitted curve in the direction sought with a large enough effect in the signal ratio, with a control signal flat, not every such curve was filed as active; inconclusive means small, poorly fitted or top-dose-only effect, or effect the other way, or a change in a side signal; inactive means no such curve, though single readings can be large or run the other way; the % refers to the signal ratio; further: potency means the concentration at half of the fitted maximal effect); settings: ER-alpha-UAS-bla HEK293, beta-lactamase ratio, antagonist mode; activity, negative = inhibition: at 76.9 µM (top of the series)
# Procedure, shortened: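 Antagonist-mode qHTS in ER-alpha-UAS-bla HEK 293 cells: compound titration, 0.5nM estradiol for 18 h, CCF4 fluorescence, Hill-derived IC50.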
# Tags describe the fitted curve by direction and shape or compound fluorescence and quenching.
# Chain of UniProt P03372 (P03372 whole entry, looked up): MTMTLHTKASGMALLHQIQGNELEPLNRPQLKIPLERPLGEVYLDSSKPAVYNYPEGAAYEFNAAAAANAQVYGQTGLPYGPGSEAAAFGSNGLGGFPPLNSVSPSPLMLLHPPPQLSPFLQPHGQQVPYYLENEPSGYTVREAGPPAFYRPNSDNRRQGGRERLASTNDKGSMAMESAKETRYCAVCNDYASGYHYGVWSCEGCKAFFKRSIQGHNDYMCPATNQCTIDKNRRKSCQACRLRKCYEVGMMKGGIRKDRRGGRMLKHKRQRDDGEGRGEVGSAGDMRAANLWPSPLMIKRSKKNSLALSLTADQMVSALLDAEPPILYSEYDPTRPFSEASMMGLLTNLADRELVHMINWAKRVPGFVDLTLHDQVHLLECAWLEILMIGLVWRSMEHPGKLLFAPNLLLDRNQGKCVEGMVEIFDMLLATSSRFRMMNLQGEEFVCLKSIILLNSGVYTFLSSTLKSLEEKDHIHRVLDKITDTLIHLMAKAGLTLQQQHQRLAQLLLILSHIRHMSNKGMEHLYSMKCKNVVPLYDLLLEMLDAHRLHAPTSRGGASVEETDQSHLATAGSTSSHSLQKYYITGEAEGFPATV
# Chain of UniProt Q03181 (Q03181 whole entry, looked up): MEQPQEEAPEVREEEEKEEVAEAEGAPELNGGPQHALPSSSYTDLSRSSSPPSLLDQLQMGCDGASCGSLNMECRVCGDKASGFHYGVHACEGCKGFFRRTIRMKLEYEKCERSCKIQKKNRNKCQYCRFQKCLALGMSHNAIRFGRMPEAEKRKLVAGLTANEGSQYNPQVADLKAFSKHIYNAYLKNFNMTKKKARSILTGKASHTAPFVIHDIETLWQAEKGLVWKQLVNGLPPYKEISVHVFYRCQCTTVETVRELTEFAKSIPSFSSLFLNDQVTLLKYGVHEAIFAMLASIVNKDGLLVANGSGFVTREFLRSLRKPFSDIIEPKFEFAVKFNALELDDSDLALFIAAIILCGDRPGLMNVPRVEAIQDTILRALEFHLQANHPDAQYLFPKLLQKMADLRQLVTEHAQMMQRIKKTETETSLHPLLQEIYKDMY
# Chain of UniProt P10275 (P10275 whole entry, looked up): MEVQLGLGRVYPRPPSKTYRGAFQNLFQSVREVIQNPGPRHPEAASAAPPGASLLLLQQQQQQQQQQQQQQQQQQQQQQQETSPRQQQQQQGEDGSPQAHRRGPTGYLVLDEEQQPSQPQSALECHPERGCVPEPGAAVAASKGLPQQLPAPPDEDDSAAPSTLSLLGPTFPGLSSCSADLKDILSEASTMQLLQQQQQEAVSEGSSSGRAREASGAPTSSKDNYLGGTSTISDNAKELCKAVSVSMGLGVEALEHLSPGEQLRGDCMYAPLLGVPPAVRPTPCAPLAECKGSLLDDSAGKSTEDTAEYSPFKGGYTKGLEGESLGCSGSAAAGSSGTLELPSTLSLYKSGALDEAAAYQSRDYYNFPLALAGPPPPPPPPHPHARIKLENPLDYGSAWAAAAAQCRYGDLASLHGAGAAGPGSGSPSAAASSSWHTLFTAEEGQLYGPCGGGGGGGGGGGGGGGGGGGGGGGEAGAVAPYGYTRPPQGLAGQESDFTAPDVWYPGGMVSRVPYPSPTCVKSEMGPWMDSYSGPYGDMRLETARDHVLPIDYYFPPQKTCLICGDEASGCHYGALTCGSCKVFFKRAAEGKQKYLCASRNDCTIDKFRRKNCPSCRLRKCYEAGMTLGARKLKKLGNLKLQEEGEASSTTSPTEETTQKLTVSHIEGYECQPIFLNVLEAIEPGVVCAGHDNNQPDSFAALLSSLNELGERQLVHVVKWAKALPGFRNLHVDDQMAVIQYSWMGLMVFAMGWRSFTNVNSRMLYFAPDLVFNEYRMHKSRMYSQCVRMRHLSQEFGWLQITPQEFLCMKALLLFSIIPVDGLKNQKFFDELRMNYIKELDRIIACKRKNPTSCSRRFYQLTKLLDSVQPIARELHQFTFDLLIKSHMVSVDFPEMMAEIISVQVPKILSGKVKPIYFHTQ
# Chain of UniProt O94782 (O94782 whole entry, looked up): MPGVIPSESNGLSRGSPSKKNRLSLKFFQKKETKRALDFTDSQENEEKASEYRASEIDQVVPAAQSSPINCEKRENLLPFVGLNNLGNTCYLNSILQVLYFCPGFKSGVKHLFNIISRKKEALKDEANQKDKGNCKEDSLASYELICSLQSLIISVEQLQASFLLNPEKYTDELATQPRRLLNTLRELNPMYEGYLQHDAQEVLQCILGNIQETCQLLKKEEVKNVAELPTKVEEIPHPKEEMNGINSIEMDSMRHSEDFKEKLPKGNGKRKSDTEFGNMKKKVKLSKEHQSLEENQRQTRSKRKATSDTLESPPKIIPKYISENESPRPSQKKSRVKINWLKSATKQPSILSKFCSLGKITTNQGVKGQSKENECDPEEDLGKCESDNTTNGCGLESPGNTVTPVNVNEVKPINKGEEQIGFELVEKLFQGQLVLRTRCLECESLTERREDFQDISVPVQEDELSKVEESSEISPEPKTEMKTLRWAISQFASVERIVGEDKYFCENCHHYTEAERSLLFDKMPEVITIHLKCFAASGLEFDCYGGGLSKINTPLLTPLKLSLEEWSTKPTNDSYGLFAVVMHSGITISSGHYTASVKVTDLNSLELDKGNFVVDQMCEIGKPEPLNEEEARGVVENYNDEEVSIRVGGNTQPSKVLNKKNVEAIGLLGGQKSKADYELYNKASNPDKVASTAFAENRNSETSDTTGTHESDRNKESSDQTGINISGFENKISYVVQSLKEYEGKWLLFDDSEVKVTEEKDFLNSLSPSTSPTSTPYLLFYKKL
# Chain of UniProt Q9HC16 (Q9HC16 whole entry, looked up): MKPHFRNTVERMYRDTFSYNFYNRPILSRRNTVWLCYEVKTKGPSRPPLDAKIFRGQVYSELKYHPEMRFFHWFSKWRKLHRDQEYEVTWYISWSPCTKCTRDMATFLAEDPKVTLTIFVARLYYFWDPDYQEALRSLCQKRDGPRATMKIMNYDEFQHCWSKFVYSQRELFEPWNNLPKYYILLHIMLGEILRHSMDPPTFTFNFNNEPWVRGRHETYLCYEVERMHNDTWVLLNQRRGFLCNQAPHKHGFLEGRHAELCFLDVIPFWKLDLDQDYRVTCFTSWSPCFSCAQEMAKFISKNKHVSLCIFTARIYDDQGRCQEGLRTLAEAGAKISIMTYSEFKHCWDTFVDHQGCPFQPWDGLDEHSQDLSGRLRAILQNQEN
structure (smiles),measurement,setting,value
CN(C)CCCC1(c2ccc(F)cc2)OCc2cc(C#N)ccc21 (stereo not given),Potency,[1],inactive
same,Potency,[2],"inconclusive: 35.5 µM [inhibitor, single point]"
COc1cc2c(cc1OC)[C@@H]1C(=O)c3ccc4c(c3O[C@@H]1CO2)C=CC(C)(C)O4,Potency,[3],"inconclusive: 35.5 µM [inhibitor, partial curve]"
same,Potency,[4],"inconclusive: 33.5 µM [inhibitor, partial curve, poor fit]"
CC[C@H](C)C(=O)O[C@H]1C[C@@H](C)C=C2C=C[C@H](C)[C@H](CC[C@@H]3C[C@@H](O)CC(=O)O3)[C@H]21,Potency,[3],"inconclusive: 56.2 µM [inhibitor, partial curve, poor fit]"
same,Potency,[5],inactive
same,"activity change, negative = inhibition",[6],inconclusive: -8.26%
same,Potency,[7],"inconclusive: 22.4 µM [inhibitor, full curve, poor fit]"
Nc1ccc(S(=O)(=O)Nc2ncccn2)cc1,Potency,[3],inactive
COc1ccc(CCN(C)CCCOc2ccc(S(=O)(=O)c3[nH]c4ccccc4c3C(C)C)cc2)cc1OC,Potency,[3],"inconclusive: 17.8 µM [inhibitor, full curve]"
Cc1cccc(N(C)C(=S)Oc2ccc3ccccc3c2)c1,Potency,[3],"inconclusive: 35.5 µM [inhibitor, partial curve]"
COc1c2occc2cc2ccc(=O)oc12,activation,[8],inactive: 0.341% and inactive: 4.08%
CC1=CC(=O)c2ccccc2C1=O,Potency,[3],"inconclusive: 50.1 µM [inhibitor, partial curve] and inconclusive: 14.1 µM [inhibitor, partial curve, poor fit]"
CCOC(=O)c1ccc(C#Cc2ccc3c(c2)C(C)(C)CCS3)nc1,Potency,[3],"inconclusive: 22.4 µM [inhibitor, full curve]"
O=C(O)CCNC(=O)c1ccc(N=Nc2ccc(O)c(C(=O)O)c2)cc1,Potency,[3],"inconclusive: 56.2 µM [inhibitor, partial curve, poor fit]"
COC(=O)C1=C(C)NC(C)=C(C(=O)OC(C)C)C1c1cccc2nonc12 (stereo not given),Potency,[3],"inconclusive: 56.2 µM [inhibitor, partial curve, poor fit]"
Cc1cc(C(C)(C)C)cc(C)c1CC1=NCCN1,Potency,[1],inactive
O=C(c1ccc(F)cc1)C1CCN(CCn2c(=O)[nH]c3ccccc3c2=O)CC1,Potency,[3],inactive
same,Potency,[2],inactive
CCCOc1ccc(C(=O)OCCN(CC)CC)cc1N,Potency,[3],"inconclusive: 39.8 µM [inhibitor, single point]"
CC(Oc1ccc(O)cc1)(P(=O)(O)O)P(=O)(O)O,Potency,[3],"inconclusive: 20 µM [inhibitor, partial curve, poor fit]"
COc1ccc(-c2ccc3cc(C(=O)O)ccc3c2)cc1C12CC3CC(CC(C3)C1)C2,Potency,[3],active: 79.4 µM
CN(C)C(=O)COC(=O)Cc1ccc(OC(=O)c2ccc(N=C(N)N)cc2)cc1,Potency,[3],inactive
COc1c(C)c2c(c(O)c1CC=C(C)CCC(=O)OCCN1CCOCC1)C(=O)OC2,Potency,[3],inactive
CN(C)CCC=C1c2ccccc2C=Cc2ccccc21,Potency,[3],"inconclusive: 0.0891 µM [inhibitor, full curve, poor fit]"
same,Potency,[2],"inconclusive: 14.1 µM [inhibitor, partial curve]"
COc1cc2c(c(OC)c1OC)-c1ccc(OC)c(=O)cc1[C@@H](NC(C)=O)CC2,activation,[9],inactive: -5.98% and inactive: 0.799% and inactive: 0.899%
N#CC(c1ccc(Cl)cc1)c1c(Cl)cc(-n2ncc(=O)[nH]c2=O)cc1Cl (stereo not given),Potency,[3],active: 79.4 µM
COc1cccc(N(C)C(=S)Oc2ccc3c(c2)CCCC3)n1,Potency,[3],"inconclusive: 44.7 µM [inhibitor, partial curve, poor fit]"
CS(=O)(=O)Nc1ccc([N+](=O)[O-])cc1Oc1ccccc1,Potency,[1],"inconclusive: 17.8 µM [cytotoxic, partial curve, poor fit]"
Cc1ccc(-c2cc(C(F)(F)F)nn2-c2ccc(S(N)(=O)=O)cc2)cc1,Potency,[3],"inconclusive: 44.7 µM [inhibitor, partial curve] and inconclusive: 50.1 µM [inhibitor, partial curve]"
same,Potency,[5],"inconclusive: 35.5 µM [fluorescent, side channel]"
same,activation,[9],inconclusive: -4.1%
same,Potency,[10],"inconclusive: 44.7 µM [inhibitor, partial curve, poor fit]"
same,Potency,[11],"inconclusive: 28.2 µM [side channel, falling, partial curve, poor fit]"
same,"activity change, negative = inhibition",[7],inconclusive: -23.3%
same,Potency,[12],"inconclusive: 35.5 µM [side channel, rising, partial curve]"
Cc1cc2nc3c(=O)[nH]c(=O)nc-3n(CC(O)C(O)C(O)CO)c2cc1C (stereo not given),Potency,[3],active: 31.6 µM
same,Potency,[4],"inconclusive: 3.35 µM [inhibitor, partial curve, poor fit]"
O=c1[nH]cnc2[nH]ncc12,Potency,[13],inactive
NC(N)=NC(=O)c1nc(Cl)c(N)nc1N,Potency,[1],inactive
same,Potency,[2],inactive
CC1=NN(c2ccccc2)C(=O)C1,Potency,[3],inactive
same,activation,[5],inconclusive: 67.2%
same,Potency,[11],"inconclusive: 0.7 nM [side channel, falling, full curve, poor fit] and inconclusive: 25.1 nM [side channel, falling, full curve, poor fit]"
same,Potency,[12],inactive
CCCCCN(C)CCC(O)(P(=O)(O)O)P(=O)(O)O,Potency,[2],inactive
C1COC(NC(C2CC2)C2CC2)=N1,Potency,[1],inactive
S=P(N1CC1)(N1CC1)N1CC1,activation,[5],inconclusive: 71.4%
same,Potency,[12],inactive
COc1ccc2nc(S(=O)Cc3ncc(C)c(OC)c3C)[nH]c2c1 (stereo not given),Potency,[13],"inconclusive: 39.8 µM [fluorescent, partial curve, poor fit]"
same,Potency,[5],"inconclusive: 35.5 µM [fluorescent, side channel, partial curve, poor fit]"
same,Potency,[12],"inconclusive: 15.8 µM [side channel, rising, partial curve, poor fit]"
O=C(O)CCCc1c[nH]c2ccccc12,Potency,[12],"inconclusive: 20 µM [side channel, rising, full curve]"
COc1cc(NCc2ccc3nc(N)nc(N)c3c2C)cc(OC)c1OC,Potency,[3],"inconclusive: 44.7 µM [inhibitor, partial curve]"
